The record followed here is patent publication US11178870B2 (priority 2017, dated 2021).

What all share (assay type): in vivo
The subject of one experiment is Botrytis cinerea. Nature of the experiment: Test Example B: Gray mold on tomato. As to conditions: class of control value, Table 7.
The subject of a further experiment is Alternaia brassicicola. Nature of the experiment: Test Example C: Alternaria sooty spot on cabbage. As to conditions: class of control value, Table 7.
Experiment [1] relates to Blumeria graminis f. sp. hordei. Nature of the experiment: Test Example D: Powdery mildew on barley. As to conditions: class of control value, Table 7.
For the next experiment, the system named is Puccinia recondita. Nature of the experiment: Test Example E: Brown rust on wheat. As to conditions: class of control value, Table 7.
A further experiment has as its system Plasmopara viticola. Nature of the experiment: Test Example G: Downy mildew on vine. As to conditions: 250 ppm spray, 2.5 ml/pot; investigated 7 to 10 days after inoculation.

Molecules are shown by their SMILES.

In the case of `CCn1c(-c2ccc(OC)cc2Cl)c(-c2ccsc2Cl)cc(Br)c1=O` [Compound 504], the “Test B control value (gray mold on tomato)” value (shortened to “Test B control value”) in the experiment with Botrytis cinerea is recorded as “H (H shows the control value more than 50%)”. For the same molecule, the “Test C control value (Alternaria sooty spot on cabbage)” value (“Test C control value” for short) with Alternaia brassicicola is reported as “H (H shows the control value more than 50%)”. Also, the “Test D control value (powdery mildew on barley)” value (shortened to “Test D control value”) in experiment [1] is recorded as “L (L shows the control value of 50% or less)”. In addition, the “Test E control value (brown rust on wheat)” value (“Test E control value” below) in the experiment on Puccinia recondita is “H (H shows the control value more than 50%)”. In the experiment on Plasmopara viticola, the “Test G control value (downy mildew on vine)” value (shortened to “Test G control value”) is listed as “H (H shows the control value more than 50%)”.
As to `CCn1c(-c2ccc(F)cc2F)c(-n2ncc(C)c2Cl)ccc1=O` [Compound 506], in the experiment with Botrytis cinerea, the “Test B control value” value was “H (H shows the control value more than 50%)”. Besides, the “Test C control value” value in the experiment on Alternaia brassicicola was “H (H shows the control value more than 50%)”. Also, the “Test D control value” value in experiment [1] is recorded as “H (H shows the control value more than 50%)”. For the same molecule, in the experiment with Puccinia recondita, the “Test E control value” value is “H (H shows the control value more than 50%)”. Besides, the “Test G control value” value in the experiment on Plasmopara viticola is recorded as “H (H shows the control value more than 50%)”.
As to `CCn1c(-c2ccc(C#N)cc2F)c(-n2cc(F)cn2)cc(Cl)c1=O` [Compound 508], in the experiment with Botrytis cinerea, the “Test B control value” value is recorded as “L (L shows the control value of 50% or less)”. The “Test C control value” value with Alternaia brassicicola is on record as “H (H shows the control value more than 50%)”. Moreover, the “Test D control value” value in experiment [1] is “L (L shows the control value of 50% or less)”. In addition, the “Test E control value” value in the experiment with Puccinia recondita is on record as “H (H shows the control value more than 50%)”. Also, in the experiment with Plasmopara viticola, the “Test G control value” value is given as “L (L shows the control value of 50% or less)”.
Take `Cn1c(-c2c(F)cccc2Cl)c(-n2cc(F)cn2)cc(Cl)c1=O` [Compound 509]: in the experiment with Botrytis cinerea, the “Test B control value” value is “H (H shows the control value more than 50%)”. Also, the “Test C control value” value with Alternaia brassicicola was “H (H shows the control value more than 50%)”. Also, the “Test D control value” value in experiment [1] is “H (H shows the control value more than 50%)”. Also, the “Test E control value” value in the experiment on Puccinia recondita is reported as “H (H shows the control value more than 50%)”. In addition, the “Test G control value” value in the experiment with Plasmopara viticola was “H (H shows the control value more than 50%)”.
For the molecule `Cn1c(-c2c(F)cccc2Cl)c(-n2cc(F)cn2)cc(Br)c1=O` [Compound 510], in the experiment on Botrytis cinerea, the “Test B control value” value is on record as “H (H shows the control value more than 50%)”. The “Test C control value” value with Alternaia brassicicola is on record as “H (H shows the control value more than 50%)”. In addition, the “Test D control value” value in experiment [1] was “H (H shows the control value more than 50%)”. In addition, the “Test E control value” value in the experiment with Puccinia recondita is “H (H shows the control value more than 50%)”. Besides, the “Test G control value” value in the experiment on Plasmopara viticola is recorded as “L (L shows the control value of 50% or less)”.
Take `Cc1cnn(-c2ccc(=O)n(C)c2-c2ccc(F)cc2C)c1` [Compound 511]: the “Test B control value” value in the experiment on Botrytis cinerea is “L (L shows the control value of 50% or less)”. Besides, the “Test C control value” value in the experiment with Alternaia brassicicola is “L (L shows the control value of 50% or less)”. Besides, the “Test D control value” value in experiment [1] was “H (H shows the control value more than 50%)”. Besides, the “Test E control value” value with Puccinia recondita was “L (L shows the control value of 50% or less)”. In the experiment with Plasmopara viticola, the “Test G control value” value was “L (L shows the control value of 50% or less)”.
For `Cc1cnn(-c2cc(Br)c(=O)n(C)c2-c2ccc(F)cc2C)c1` [Compound 513], the “Test B control value” value in the experiment with Botrytis cinerea is listed as “L (L shows the control value of 50% or less)”. For the same molecule, the “Test C control value” value in the experiment with Alternaia brassicicola is “H (H shows the control value more than 50%)”. Besides, the “Test D control value” value in experiment [1] is reported as “L (L shows the control value of 50% or less)”. Moreover, in the experiment on Puccinia recondita, the “Test E control value” value is “H (H shows the control value more than 50%)”. Further, the “Test G control value” value with Plasmopara viticola is reported as “L (L shows the control value of 50% or less)”.
With `Cc1cc(F)ccc1-c1c(-n2ncc(C)c2Cl)cc(Br)c(=O)n1C` [Compound 514], the “Test B control value” value in the experiment with Botrytis cinerea was “H (H shows the control value more than 50%)”. Moreover, the “Test C control value” value in the experiment with Alternaia brassicicola was “H (H shows the control value more than 50%)”. The “Test D control value” value in experiment [1] is “H (H shows the control value more than 50%)”. The “Test E control value” value in the experiment on Puccinia recondita is given as “H (H shows the control value more than 50%)”. The “Test G control value” value in the experiment with Plasmopara viticola is reported as “L (L shows the control value of 50% or less)”.
Regarding `Cc1cnn(-c2cc(Br)c(=O)n(C)c2-c2ccc(F)cc2Cl)c1Cl` [Compound 515], the “Test B control value” value with Botrytis cinerea is given as “H (H shows the control value more than 50%)”. For the same molecule, the “Test C control value” value in the experiment on Alternaia brassicicola is recorded as “H (H shows the control value more than 50%)”. In addition, in experiment [1], the “Test D control value” value was “H (H shows the control value more than 50%)”. Further, the “Test E control value” value with Puccinia recondita is “H (H shows the control value more than 50%)”. In addition, the “Test G control value” value in the experiment on Plasmopara viticola is recorded as “H (H shows the control value more than 50%)”.
On to `CCn1c(-c2ccc(F)cc2F)c(-n2cc(C)cn2)ccc1=O` [compound 505, 6-(2,4-difluorophenyl)-1-ethyl-5-(4-methyl-1H-pyrazol-1-yl)pyridin-2(1H)-one], for which the “Test B control value” value in the experiment on Botrytis cinerea is listed as “H (H shows the control value more than 50%)”. Besides, the “Test C control value” value in the experiment on Alternaia brassicicola was “H (H shows the control value more than 50%)”. Moreover, the “Test D control value” value in experiment [1] is recorded as “H (H shows the control value more than 50%)”. For the same molecule, the “Test E control value” value with Puccinia recondita is on record as “H (H shows the control value more than 50%)”. The “Test G control value” value in the experiment with Plasmopara viticola was “H (H shows the control value more than 50%)”.
